# Reference: the supplement of paper PMC9174493
# The other results are listed elsewhere or left out. Single values of this set are uncertain. Values with irradiation are relative to irradiated vehicle.
# How the values were obtained:
# [1] = tested on: A549-Dual; test: NF-kB reporter (SEAP) activity, viability-corrected, relative to vehicle (fold change vs vehicle); higher = more activation of STING-IRF / NF-kB immune response reporter; details: 10 µM
# [2] = tested on: A549-Dual; test: ISRE reporter (Lucia luciferase) activity, viability-corrected, relative to vehicle (fold change vs vehicle); higher = more activation of STING-IRF / NF-kB immune response reporter; details: 10 µM
# 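Wherever NF-kB reporter (SEAP) activity, viability-corrected, relative to vehicle is given: viability correction based on the alamar blue assay, with concentrations leaving 10% survival or less dropped.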
Structure (SMILES),NF-kB reporter ([1]; irradiation: 8 Gy/4 fr),NF-kB reporter ([1]; irradiation: none),ISRE reporter ([2]; irradiation: 8 Gy/4 fr),ISRE reporter ([2]; irradiation: none)
CC(=O)OCC1=C(C(=O)O)N2C(=O)C(NC(=O)CSc3ccncc3)C2SC1.CC(=O)OCC1=C(C(=O)O)N2C(=O)C(NC(=O)CSc3ccncc3)C2SC1.c1ccc(CNCCNCc2ccccc2)cc1 (stereo not drawn) [Cephapirin Benzathine],0.755,0.947,0.711,0.764
Cl.N=C(N)c1ccccc1 [Benzamidine HCl],0.707,0.676,0.682,0.524
O=C(O)c1ccccc1 [Benzoic Acid],0.806,1.46,0.721,0.737
CSCC1CN(/N=C/c2ccc([N+](=O)[O-])o2)C(=O)O1 (stereo not drawn) [Nifuratel],0.675,1.01,0.455,0.942
O=C(O)c1ccccc1O [Salicylic acid],0.645,1.12,0.602,0.752
OCC(O)CN1CCN(c2ccccc2)CC1 (stereo not drawn) [Levodropropizine],0.794,1.23,0.918,0.683
COCC(=O)Nc1c(I)c(C(=O)NCC(O)CO)c(I)c(C(=O)N(C)CC(O)CO)c1I (stereo not drawn) [Iopromide],0.963,0.777,0.817,0.631
CC(c1cc2ccccc2s1)N(O)C(N)=O (stereo not drawn) [Zileuton],0.868,1.14,1.06,1.01
O=C1CN(/N=C/c2ccc(-c3ccc([N+](=O)[O-])cc3)o2)C([O-])=N1.[Na+] [Dantrolene sodium],0.997,1.06,0.937,0.854
NS(=O)(=O)c1cc(Cl)c(Cl)c(S(N)(=O)=O)c1 [Dichlorphenamide (Diclofenamide)],0.781,0.538,0.787,0.546
CC(C)(C)C(=O)OCOC(=O)C1N2C(=O)C(N=CN3CCCCCC3)C2SC1(C)C.Cl (stereo not drawn) [Pivmecillinam hydrochloride],0.93,0.974,0.838,0.884
CCC1OC(=O)CC(O)C(C)C(OC2OC(C)C(OC3CC(C)(O)C(O)C(C)O3)C(N(C)C)C2O)C(CC=O)CC(C)C(=O)/C=C/C(C)=C/C1COC1OC(C)C(O)C(OC)C1OC.O=C(O)C(O)C(O)C(=O)O (stereo not drawn) [Tylosin tartrate],0.819,0.904,0.93,0.746
CCCCOc1cc(C(=O)NCCN(CC)CC)c2ccccc2n1.Cl [Dibucaine HCl],0.664,1.18,0.713,1.56
CCN(CC)CCNC(=O)c1ccc(N)cc1.Cl [Procainamide HCl],0.86,0.961,0.857,0.836
C[S+](CCC(N)C(=O)[O-])CC1OC(n2cnc3c(N)ncnc32)C(O)C1O (stereo not drawn) [Ademetionine],0.568,0.613,0.612,0.726
CC(C)(C)C(=O)Oc1ccc(S(=O)(=O)Nc2ccccc2C(=O)NCC(=O)[O-])cc1.O.O.O.O.[Na+] [Sivelestat sodium tetrahydrate],1.04,1.54,1.07,1.15
CCC(C)C(N)C(=O)O (stereo not drawn) [isoleucine],1.22,0.901,1.22,0.866
NC(=O)C1CCCN1C(=O)C(Cc1c[nH]cn1)NC(=O)C1CCC(=O)N1 (stereo not drawn) [Protirelin],0.784,1.35,0.586,0.712
O=C(O)/C=C/c1ccc(O)c(O)c1 [Caffeic Acid],1.02,1.01,1.06,0.935
CC1(C)C(C(=O)[O-])N2C(=O)CC2S1(=O)=O.[Na+] (stereo not drawn) [Sulbactam sodium],0.753,1.08,0.691,0.833
Cl.O=C1CN2Cc3c(ccc(Cl)c3Cl)NC2=N1 [Anagrelide HCl],1.24,1.91,1.02,2.93
CC1NCc2cc(-c3ccc4c(=O)c(C(=O)O)cn(C5CC5)c4c3OC(F)F)ccc21 (stereo not drawn) [Garenoxacin],1.03,0.91,0.761,0.897
CCOC(=O)OC(C)OC1=C(C(=O)Nc2ccccn2)N(C)S(=O)(=O)c2ccccc21 (stereo not drawn) [Ampiroxicam],0.789,0.989,0.845,0.847
Nc1nc2c(ncn2COCCO)c(=O)[nH]1 [Aciclovir],0.706,0.894,0.76,0.739
Cc1cccc(CN2CCN(C(c3ccccc3)c3ccc(Cl)cc3)CC2)c1.Cl.Cl (stereo not drawn) [Meclizine 2HCl],0.74,0.585,0.996,0.553
O.O.O.O.O=P([O-])(O)C(Cl)(Cl)P(=O)([O-])O.[Na+].[Na+] [Clodronate disodium tetrahydrate],0.98,1.02,0.862,0.847
CN(C)CCCN1c2ccccc2Sc2ccc(Cl)cc21.Cl [Chlorpromazine HCl],1.09,1.25,0.998,2.07
